# Source: the supplement of paper PMC12632987
# Over roughly 4,500 sequences, “median log2 fold change of GCK-ALFA target abundance (FLAG IP / Myc IP barcode read proportion)” has its median near 0.078; the lowest 2% begin near -0.6. Some of the results follow.
# B1: GBRAP_184_5276 (protein)
# chain: MIKHVEIEAETGEEAIEKVKKAAEEAKAAGEKLKLTLVLENASLEEIKELFALLKELKEEGIIEEAVVEIERELSDEEIDEVLKAADEAGVRVVLAISDE
# B2: GBRAP_128_3392 (protein)
# chain: SEEEKVEKAKELIDKIIEADVEEAKKLAKEFMELFGTLSNEDREEVAEYFEEQLPKLTAEKLEVVADVLEEQRPKFDPYGQELVAGMEVEALNEAEEKEE
# B3: GBRAP_128_3490 (protein)
# chain: SMAAAVARTRELMAAIGEADAAEAAALTAEIVALLASADPETREAIVEVIESMLPELSAEKLDVVADTLEAQRPTLDPDTANLVADIQVAALNEALEKEE
# B4: GBRAP_11_2782 (protein)
# chain: KKEKLEEIVKLAKEAIKLAEKLLKEGVDNEELIKKLEKALKELRKLAEENLDEGEKKLVEIAEELWKEFLEDEENKEEYLKQLIAALRVLEGQALLLLEE
# B5: GBRAP_160_4043 (protein)
# chain: KEKYEKLKEEAKKEFKEAEELIEGQTAEEAAVIVSVTVGEIILTAEELGVDDDELEDFIDEKGDEAVEELLANPDLTEEEIKELLKEMEKKVLEAIEKAK
# B6: GBRAP_35_5606 (protein)
# chain: DSLETTVEMLVATIEDLTLAVPEMPVEQLAKIGRSLIKLAREIAEEAKDNLEALKKLKEAVKKLLEAIKKHKGDNPLAQKLAKEVEELLKYLEELIKKVE
# B7: GBRAP_52_6122 (protein)
# chain: MREEAEKLVREVLALIRAGKREEARALIKKFVEAANDEELRILAEAVAELAREAPPEDWDAVWELAEMLAEEMEKAGKDEVLVDDLLARTAAALYERELA
# B8: GBRAP_52_6232 (protein)
# chain: ARAAARAAVERIIAAVRAGKEAEARAIAREIAATWDDAELELLAEALAEATRAAPKEDLPAYERAAEILAEELEAAGRPDVLVDYLEARFAAAAYENEQK
# B9: GBRAP_128_3271 (protein)
# chain: MNPEVVEYAKKLMEEMKNSNEEERRKIAEEIMERILASSLEEAEAMIEVIEELLKELSAEDLEILAEVAREARPKADPEKANLLAGLEVEALNEAEEKEE
# B10: GBRAP_64_6481 (protein)
# chain: SEEIEEEHERLLKKVKELLELFKKELPELAPRAQAILEKVEEAKEKSLEEKLDLVVEVADELLALYNDPRVSEELKDKIAEALDAAFALAALLAEKEEEE
# B11: GBRAP_166_4874 (protein)
# chain: GLEELLEKARKEIRELLKKASEADDEERVELYIEIGEIIEELREAGAPKEAILELVREALKEAKELGLDVRLLAGIIINVTDFDEEEIDELDKIVEEVLK
# B12: GBRAP_128_3206 (protein)
# chain: VSPETVAELRALADEVAATKTDAAIKAFAAAIAEALKAGRLNLDALEEVVTYLGKKLDEETIAKAMDALRAALADVGPEALATALGALGEVLMEKEEEEE
# B13: GBRAP_184_5295 (protein)
# chain: KVVRKVIEAKTAEEAIKKINEVAEKAKEEGVKVELDLFLENVSVEGFKKIAEKLKELKEKGLIKEATVVLLDEKSEEEVDEFVKIADEAGIRLVVALSDE
# B14: GBRAP_166_4896 (protein)
# chain: STADAIAAIEALADDVIARIAELTDEELLDAFVEMAEIVDKAGATPELIAAAAAAFVRVAQAAVAAGRDWARVETLILGAVGYDEKLLDAVEAALAAARA
# B15: GBRAP_160_4064 (protein)
# chain: MSKTEKAIEAIRKEAEEILKLIEGESVEQRATIIDVEFGSTILELYEEGLISEETAEKLLEVVDETVAYLLANPDLSEEEIKELIKEAVEKMEKIIKEDS
# B16: GBRAP_128_3270 (protein)
# chain: ANPEVVAWARAAVEALKTSTPEEARAIAEAFAQWLLESSLEDAEQAVEVVEERLPELTVEQLDILADALRAARPQADPGKANLLAGLEVAALNEAEELEE
# B17: GBRAP_160_4268 (protein)
# chain: SKSLEELAEDVEEDREEILALVDELSAEEIRTLAVTSLGSHLLEAIDEGKISDEAEEELAAIIDKLDADLTAAADASPEERRAIITEHYDKAIELLRKEA
# B18: GBRAP_78_6646 (protein)
# chain: EVEELIDKAIEELDEAAKLAKNLPEEERNELLYYLVEASSYLLLAEENGFDLKELEEAKKHLEKALKLVKKLKSKYAPEIEKELEKALKLLEEAIKLVKE
# B19: GBRAP_128_3568 (protein)
# chain: SVEEKVARAEALLERIRAGDEAERRAAAEEIVALLAAADEESRAAITETILARLPELSVEELDVLADVFRRAMPSADPATAEALAEIEVEALNEAEEKEE
# B20: GBRAP_9_7165 (protein)
# chain: SKEKKEKILEVVKEALEEIIELVPEEVKPLAKKLAEEALKKLEEAVKDENTTVEEFAEKAKEELKKVAEELKKKVDEETAKMIEAVVLTAEEEIEEIVEE
# B21: GBRAP_160_4798 (protein)
# chain: SERVERVARLFREAAREAIEMAKGETHEERVNIFDVELGSAIMEAIEEGLLNDEEEDVALEVRDELIAALRANPDLTEEEIRALAEAAVEDLRRRLEELA
# B22: GBRAP_11_2758 (protein)
# chain: KKEKLKEIAELAEKIAELLEKLLEEGVDNEELLKEAEKAIKELEKLVKEYGDESLKKLVEILKEEWEESLEDEENKEQYVKEALATARVIAGDALLEYEE
# B23: GBRAP_74_6511 (protein)
# chain: MEELLKELKKAAEEKDVKKLVELAKKIAKEGNKEAIEKAAEIVIEFVEKNLDELTPEELEALADALAELADKLMELGGDSEVINRVAKAAVELQKKLEAL
# B24: GBRAP_9_7123 (protein)
# chain: MEEMIKKMAEVVKEMIEDISLAVPSVTEELKEKWLKKVEELEKEALKDKSLTPEEIKKKFKELVKEIKEEVKKIVNPEDAKIVDAIALTAEEEIDEIVEE
# B25: GBRAP_52_6017 (protein)
# chain: MRERLRAFVDEALELVKAGKLEEAQKLVDELVASLNEEEIKVLIDVVAERAAAAAPEDHDAVWRLAEMIAEAMEKAGYDEALADDLLARVAAALYEAEQR
# B26: GBRAP_128_3330 (protein)
# chain: MDEEALEKAKELAKELEKADEEEAAKLTREIVALLGKASPEEREKIAEIFEKALEKLTAEKLDVVADTLREERPKLSPEAQLVVAGLEVEALNLAEEKEE
# B27: GBRAP_166_4973 (protein)
# chain: SQKELVEELKKELDRLAEKMKTADYEEKLELLAEAAELLREAKEKGLSKEDLRELIRYLIEKAKEVGIPLSAVEGALTILAELDEEEVDILLEAIEEVEA
# B28: GBRAP_11_2757 (protein)
# chain: KKEKLKEIAEKAKKLAELLEKLLKEGVDNEELLKKAKELLEELKKLVEKYGDESLKKLVEILEEEFEKALKDKENKEKYVQNALATAAVIAGQALLEYEE
# B29: GBRAP_160_4840 (protein)
# chain: SEKLEKVKKELEETLKFVLSLVDEVSVEDLAKFFDAEIGTTLLYLYEEGYINEEAFDAGIELADEAREALLAAADASPEELKALIKEKVEEMIKKIEKLL
# Biological target: GABARAP, O95166
# Assay: median log2 fold change of GCK-ALFA target abundance (FLAG IP / Myc IP barcode read proportion) (log2 ratio); each designed protein is fused to an ALFA-tag nanobody in HEK293 cells to bring the named protein to FLAG-tagged glucokinase (GCK); Myc marks an untargeted standard; higher = target protein stabilised (more abundant)
# Conditions: target protein: 3xFLAG-MCP-GCK-ALFA reporter; HEK293 landing pad (RPLP)
# How it was run: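 Sequencing of reverse-transcribed, amplified circular RNA barcodes from anti-FLAG and anti-Myc immunoprecipitates provided the readout for an ALFA-nanobody-fused binder library recombined into HEK293 landing-pad cells. Those cells were induced with 2 μg mL^−1 doxycycline, transfected with a plasmid expressing a FLAG-tagged target and a Myc-tagged standard, and lysed after 48 h. Target abundance is the per-binder median log2 ratio of FLAG to Myc barcode read proportions. Only barcodes at a proportion of ≥10^−7 in both replicates and binders with ≥3 barcodes per replicate were kept, with a 10^−6 pseudocount added before the two replicates were pooled.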
# Sequence of GABARAP, O95166 (O95166 whole entry, the tested form may be a part): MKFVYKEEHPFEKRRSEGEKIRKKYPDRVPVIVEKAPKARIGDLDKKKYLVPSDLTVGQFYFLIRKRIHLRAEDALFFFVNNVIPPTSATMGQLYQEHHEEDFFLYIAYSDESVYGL
row,Binder,median log2 fold change
1,B1,0.223
2,B2,-0.136
3,B3,0.168
4,B4,0.3
5,B5,-0.193
6,B6,-0.544
7,B7,0.0507
8,B8,0.0142
9,B9,0.243
10,B10,-0.106
11,B11,0.0131
12,B12,0.228
13,B13,-0.0918
14,B14,0.185
15,B15,-0.337
16,B16,0.0153
17,B17,0.0659
18,B18,-0.0456
19,B19,0.215
20,B20,0.369
21,B21,0.104
22,B22,0.149
23,B23,0.302
24,B24,0.342
25,B25,0.189
26,B26,-0.0974
27,B27,0.161
28,B28,0.312
29,B29,-0.432
